{"source": "the supplement of paper PMC11283458", "note": "This is one part of the list. Single values are uncertain, as repeats are few or missing."}
{"system": "Mef2d microexon dual Nano/Firefly luciferase splicing reporter in Neuro-2a cells", "assay": "B-score of Firefly/Nano luminescence ratio, V1 Mef2d microexon reporter (B-score (plate-normalised)); higher = more Mef2d microexon inclusion", "conditions": "24 h"}
{"compound": "O=C(Oc1ccc2c(c1)oc(=O)c1ccccc12)c1ccccc1Cl", "note": "(4 µM);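 on B-score of Nano/Firefly luminescence ratio, V2 Mef2d microexon reporter: compounds at 4 µM (PKI library 0.5 µM) on Dox-inducible N2A Flp-In cells with PEST-tagged luciferases, 384-well plates, B-score from per-plate median-polish residual over median absolute residual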", "B-score": 2.87}
{"compound": "N#CC(=NNc1cc(C(F)(F)F)ccc1OCC(F)(F)F)S(=O)(=O)c1ccccc1", "note": "(4 µM)", "B-score": 21}
{"compound": "COc1ccc(-c2cc(NC(=O)Cc3c(C)noc3C)ccc2OC)cc1", "note": "(4 µM)", "B-score": 4.78}
{"compound": "Nc1ccc(S(=O)(=O)Nc2cccc(C(F)(F)F)c2)cc1", "note": "(4 µM)", "B-score": 3.37}
{"compound": "CCCc1nn(C)cc1C(=O)ON=C(N)c1ccc(Cl)cc1", "note": "(4 µM)", "B-score": 14.1}
{"compound": "Cc1nn(-c2ccccc2)c(C)c1C(=O)ON=C(N)c1ccc(C(C)(C)C)cc1", "note": "(4 µM)", "B-score": -2.54}
{"compound": "O=C(NC=Cc1ccsc1)Nc1cc(C(F)(F)F)cc(C(F)(F)F)c1", "note": "(4 µM)", "B-score": 4.59}
{"compound": "O=[N+]([O-])c1cccnc1NCC1COc2ccccc2O1", "note": "(stereo unspecified) (4 µM)", "B-score": -1.39}
{"system": "Mef2d microexon dual Nano/Firefly luciferase splicing reporter in Neuro-2a cells", "assay": "B-score of Nano/Firefly luminescence ratio, V2 Mef2d microexon reporter (B-score (plate-normalised)); higher = more Mef2d microexon inclusion", "conditions": "24 h"}
{"compound": "O=C(Oc1ccc2c(c1)oc(=O)c1ccccc12)c1ccccc1Cl", "note": "(4 µM)", "B-score": 2.38}
{"compound": "N#CC(=NNc1cc(C(F)(F)F)ccc1OCC(F)(F)F)S(=O)(=O)c1ccccc1", "note": "(4 µM)", "B-score": 3.32}
{"compound": "COc1ccc(-c2cc(NC(=O)Cc3c(C)noc3C)ccc2OC)cc1", "note": "(4 µM)", "B-score": 3.25}
{"compound": "Nc1ccc(S(=O)(=O)Nc2cccc(C(F)(F)F)c2)cc1", "note": "(4 µM)", "B-score": 2.56}
{"compound": "CCCc1nn(C)cc1C(=O)ON=C(N)c1ccc(Cl)cc1", "note": "(4 µM)", "B-score": 1.62}
{"compound": "Cc1nn(-c2ccccc2)c(C)c1C(=O)ON=C(N)c1ccc(C(C)(C)C)cc1", "note": "(4 µM)", "B-score": -11.4}
{"compound": "O=C(NC=Cc1ccsc1)Nc1cc(C(F)(F)F)cc(C(F)(F)F)c1", "note": "(4 µM)", "B-score": 3.99}
{"compound": "O=[N+]([O-])c1cccnc1NCC1COc2ccccc2O1", "note": "(stereo unspecified) (4 µM)", "B-score": -2.37}
